Measurements taken from US20170029841A1, “METHODS AND COMPOSITIONS FOR SELECTIVE REGULATION OF PROTEIN EXPRESSION” (priority 2015, published 2017).

Test system: CP4-EPSPS protein
Settings: R3 plants, tassels harvested at V8 to V12

B1: SEQ ID NO: 1: mts-siRNA target element, 95% identity to nucleotide positions 1429 to 1628 of cDNA SEQ ID NO: 17 (nucleic acid)
DNA: AGACGACGACCGTGCATGGTGATGAATCACAGACGACGAACACGCATGTCGCATCGCCGTCCTCTTTGTATCACACAGCATCACCTTCTTCGCTCTACTACTCCCCCGAGCAATCACCGACCAATAACACCAACCATCAACCTCCCCCGTCGCCGCCGCCTTCACCGTCCTCCCCTCACACCATAGAACTGCAAATGTCCG
- CP4-EPSPS fluorescence signal in anther wall, tapetum and developing pollen microspores: low fluorescence signal
